Laboratory results taken from PMC10668032.
This is one part of the list. At the low end of the ranking, values are background and their order means little.

The sequences below were run against SIX1 homeodomain (reference allele) (UniProt Q15475) (assay: universal protein binding microarray). Conditions: Universal all-10-mer PBM (8x60K, AMADID 030236), 300 nM GST-tagged protein, Alexa Fluor 488 anti-GST; buffer, salt, pH and temperature not stated; high values mean tight binding; most listed sequences are background and not binding sites; double strand, one strand shown.
In the case of CCTTACTC, the binding signal is reported as 0.0586 E-score.
Sequence ATAAACAG has a binding signal of -0.107 E-score.
Sequence ACGCTTAA has a binding signal of -0.194 E-score.
In the case of CAGCCGCG, the binding signal is reported as 0.144 E-score.
CTGACACA showed a binding signal of 0.0138 E-score.
Work on GTTCCCGA yielded a binding signal of -0.112 E-score.
GGTCCACA gave a binding signal of -0.0594 E-score.
AAGGGTCC showed a binding signal of -0.257 E-score.
With AGTAAAGA the binding signal was -0.146 E-score.
CCATTTAG showed a binding signal of -0.0498 E-score.
Sequence AACCCAGA has a binding signal of 0.137 E-score.
TACCGCTA was tested, and the binding signal was 0.109 E-score.
TCAGCTGA showed a binding signal of -0.217 E-score.
TAAATAGA gave a binding signal of -0.129 E-score.
With ATCGAATC the binding signal was 0.162 E-score.
In the case of ATAGAAGC, the binding signal is reported as -0.0285 E-score.
With ACGAAATA the binding signal was -0.019 E-score.
Work on AAGTTTTG yielded a binding signal of -0.122 E-score.
For TATGTCAA, the binding signal was -0.0935 E-score.
AACATACC was tested, and the binding signal was 0.129 E-score.
In the case of CATTGGTC, the binding signal is reported as -0.0422 E-score.
CAGTCGCA was tested, and the binding signal was -0.259 E-score.
CCCGTGCC gave a binding signal of -0.0961 E-score.
In the case of GACTCCTA, the binding signal is reported as -0.0596 E-score.
Work on TAGATAGA yielded a binding signal of 0.114 E-score.
For GAAATCCA, the binding signal was 0.0255 E-score.
TCTACTAA was tested, and the binding signal was -0.00144 E-score.
For TCTAGCAA, the binding signal was -0.0831 E-score.
ATTGTAGA was tested, and the binding signal was 0.0879 E-score.
With ACTGTCAC the binding signal was -0.156 E-score.
CCAATAGG gave a binding signal of 0.0713 E-score.
ATTCGATC was tested, and the binding signal was 0.18 E-score.
With GAGCAAGA the binding signal was -0.114 E-score.
With TCTATTAA the binding signal was -0.104 E-score.
Work on CGGGCGGC yielded a binding signal of -0.0216 E-score.
With AGAACTCC the binding signal was -0.0389 E-score.
AGGAACCC gave a binding signal of -0.0257 E-score.
AGCTCCTA gave a binding signal of -0.154 E-score.
For ACTGACAC, the binding signal was 0.335 E-score.
For CCGGGTTC, the binding signal was 0.168 E-score.
GATCTCGC was tested, and the binding signal was 0.254 E-score.
In the case of GTGAGTAA, the binding signal is reported as -0.0761 E-score.
AGATCCGC showed a binding signal of 0.333 E-score.
AGTCCAAT showed a binding signal of -0.212 E-score.
For AGGCGACT, the binding signal was -0.086 E-score.
For AGGAATTA, the binding signal was -0.109 E-score.
ATACGACG was tested, and the binding signal was 0.191 E-score.
CGATTCAG showed a binding signal of 0.0439 E-score.
Sequence ACCCAGGT has a binding signal of 0.0225 E-score.
ATATCTGA gave a binding signal of 0.356 E-score.
Sequence ATCGACCA has a binding signal of -0.00571 E-score.
ACCTCAGG showed a binding signal of -0.123 E-score.
In the case of ATCTACTG, the binding signal is reported as 0.22 E-score.
For CCTAGGTC, the binding signal was -0.0694 E-score.
With GATGTTCC the binding signal was -0.121 E-score.
Work on GTGCTAGA yielded a binding signal of -0.142 E-score.
In the case of AAGCTCGG, the binding signal is reported as -0.0477 E-score.
Sequence AATCAAAA has a binding signal of -0.0282 E-score.
TAGTACTA showed a binding signal of -0.121 E-score.
For ACCGATGG, the binding signal was -0.0165 E-score.
CACTCCCG gave a binding signal of 0.132 E-score.
CAAGTTCG gave a binding signal of -0.233 E-score.
With ATTAACCG the binding signal was 0.0919 E-score.
CAGCATCG showed a binding signal of -0.164 E-score.
CCTCGAGA gave a binding signal of 0.0231 E-score.
With ACTGCTAC the binding signal was -0.127 E-score.
GAGCCTCC showed a binding signal of -0.0855 E-score.
ATTATAAA showed a binding signal of -0.185 E-score.
With CTCTGATC the binding signal was 0.145 E-score.
For GGTACAAA, the binding signal was -0.282 E-score.
In the case of CGCACTTC, the binding signal is reported as -0.155 E-score.
TACACCCA was tested, and the binding signal was 0.341 E-score.
TGAATCAA showed a binding signal of -0.0801 E-score.
Sequence GCCATACC has a binding signal of 0.0482 E-score.
ACAGTCTG was tested, and the binding signal was -0.217 E-score.
AATTTGAC gave a binding signal of -0.161 E-score.
TTTCAAAA showed a binding signal of -0.181 E-score.
For GGGTCTAA, the binding signal was 0.142 E-score.
AGTGGGCG showed a binding signal of -0.0754 E-score.
CACGTAGA was tested, and the binding signal was -0.0094 E-score.
ATATATCC was tested, and the binding signal was 0.438 E-score.
For ATCGTGAG, the binding signal was 0.26 E-score.
In the case of GCTACTCA, the binding signal is reported as -0.019 E-score.
CAATATAG showed a binding signal of 0.132 E-score.
For ATATGCCA, the binding signal was 0.339 E-score.
CGAGCGCA showed a binding signal of -0.022 E-score.
